Data taken from PubChem BioAssay (Tox21).
Values joined by “and” are separate entries in the source; they are usually repeats but may differ in a detail not shown here. Equal entries are not always repeated. Inconclusive means that the source gave no clear call. Such entries were picked first, then a sample of the others. For some of these results: Where the call is inconclusive, the potency comes from a doubtful curve fit. The source holds several records for some structures; these can differ, active in one and inactive in another. Active and inactive are the calls of the source. Unless noted, calls follow the shape of the dose curve; as a rule, active = well fitted curve in the direction sought with a large enough effect in the repeat runs; inconclusive = weak or mixed curves; inactive = no such curve, though single readings can be large; an effect the other way counts as inactive or inconclusive.

How the values were obtained:
[1] = qHTS assay to identify aromatase inhibitors - cell viability counter screen (AID 743084); conditions: MCF-7 aro ERE viability, CellTiter-Fluor, 24 h; activity change, negative = cytotoxicity: at 70.3 µM (top of the series);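 also: cells stimulated with testosterone during compound exposure; nearly all actives have a fitted effect of over 55% in size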
[2] = molecular target: Aryl hydrocarbon receptor (Homo sapiens) (UniProt P35869); test: qHTS assay to identify small molecule that activate the aryl hydrocarbon receptor (AhR) signaling pathway (AID 743085); also: nearly all actives have a fitted effect of over 15% in size
Sequence of UniProt P35869 (P35869 whole entry, looked up): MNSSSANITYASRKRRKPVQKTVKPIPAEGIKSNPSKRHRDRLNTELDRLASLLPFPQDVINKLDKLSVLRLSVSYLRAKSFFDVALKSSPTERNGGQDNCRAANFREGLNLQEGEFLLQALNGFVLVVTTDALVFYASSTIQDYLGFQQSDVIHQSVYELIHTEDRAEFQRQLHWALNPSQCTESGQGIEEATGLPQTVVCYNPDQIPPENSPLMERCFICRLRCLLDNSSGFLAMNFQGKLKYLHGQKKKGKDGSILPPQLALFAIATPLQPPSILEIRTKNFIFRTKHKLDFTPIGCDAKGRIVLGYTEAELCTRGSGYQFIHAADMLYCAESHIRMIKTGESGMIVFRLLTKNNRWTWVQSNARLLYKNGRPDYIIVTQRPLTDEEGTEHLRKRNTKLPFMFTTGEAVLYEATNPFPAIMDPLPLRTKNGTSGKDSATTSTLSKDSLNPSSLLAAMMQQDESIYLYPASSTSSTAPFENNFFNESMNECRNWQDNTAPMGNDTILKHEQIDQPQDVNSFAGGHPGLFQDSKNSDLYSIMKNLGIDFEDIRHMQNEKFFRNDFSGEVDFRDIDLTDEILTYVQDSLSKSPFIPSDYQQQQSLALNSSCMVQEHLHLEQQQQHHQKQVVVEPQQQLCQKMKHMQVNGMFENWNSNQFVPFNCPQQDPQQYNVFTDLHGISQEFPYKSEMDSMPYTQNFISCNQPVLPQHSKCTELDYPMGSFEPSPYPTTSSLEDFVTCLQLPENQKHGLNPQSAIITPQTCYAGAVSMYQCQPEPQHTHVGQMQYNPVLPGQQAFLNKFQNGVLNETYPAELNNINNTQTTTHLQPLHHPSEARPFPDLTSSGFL
Outline: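 AhR agonist activity is inferred from enhanced light output of a DRE-controlled firefly luciferase reporter in HepG2 cells, measured with ONE-Glo following 24 h treatment at 37C.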

[3] = qHTS assay to identify small molecule that activate the aryl hydrocarbon receptor (AhR) signaling pathway - cell viability counter screen (AID 743086); also: nearly all actives have a fitted effect of over 45% in size
Outline: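 Cytotoxicity counter screen: CellTiter-Fluor signal (30 min, 37 C) in 4000 HepG2 cells/well carrying the DRE-luciferase reporter, following 24 h compound exposure at 37 C.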

[4] = qHTS assay for small molecule agonists of the antioxidant response element (ARE) signaling pathway (AID 743202; active = well fitted activation curve with a large enough effect in the signal ratio in the repeat runs, not every such curve was filed as active; inconclusive = weak or mixed curves, or effect the other way; inactive = no such curve, though single readings can be large or run the other way; the % refers to the signal ratio; as to activation: % is scaled to controls: 0 for no effect and ±100 for the full control effect); conditions: HepG2 ARE-bla reporter, beta-lactamase FRET, 16 h; activation: at 73.3 µM (top of the series) unless noted
Outline: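 Quantitative high-throughput format in HepG2 cells bearing an integrated ARE-beta-lactamase reporter. Compound exposure lasted 16 h at 37 C, and fluorescence was read 2 h after adding LiveBLAzer B/G substrate at room temperature.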

[5] = molecular target: Bile acid receptor (Homo sapiens) (UniProt Q96RI1); test: qHTS assay to identify small molecule agonists of the farnesoid-X-receptor (FXR) signaling pathway (AID 743220; active = well fitted activation curve with a large enough effect in the signal ratio in the repeat runs, not every such curve was filed as active; inconclusive = weak or mixed curves, or effect the other way; the % refers to the signal ratio); conditions: HEK293T FXR-UAS-bla, beta-lactamase FRET ratio, 16 h; activation: at 62.6 µM (top of the series) unless noted
Sequence of UniProt Q96RI1 (Q96RI1 whole entry, looked up): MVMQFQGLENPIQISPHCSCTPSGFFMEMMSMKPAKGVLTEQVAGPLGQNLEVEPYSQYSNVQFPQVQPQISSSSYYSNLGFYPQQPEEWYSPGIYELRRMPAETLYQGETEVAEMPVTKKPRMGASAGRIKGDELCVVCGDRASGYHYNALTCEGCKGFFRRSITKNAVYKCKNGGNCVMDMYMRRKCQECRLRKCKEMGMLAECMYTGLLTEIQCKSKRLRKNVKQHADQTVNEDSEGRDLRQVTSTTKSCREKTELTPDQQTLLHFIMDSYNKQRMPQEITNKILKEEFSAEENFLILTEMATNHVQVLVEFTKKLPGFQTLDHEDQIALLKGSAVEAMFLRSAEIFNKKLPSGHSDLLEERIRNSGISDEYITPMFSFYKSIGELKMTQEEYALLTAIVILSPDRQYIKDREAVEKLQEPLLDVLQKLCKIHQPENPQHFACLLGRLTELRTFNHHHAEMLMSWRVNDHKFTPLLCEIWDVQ
Outline: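 Beta-lactamase reporter under UAS control in GeneBLAzer FXR HEK 293T cells (5000/well) measured with LiveBLAzer FRET substrate after 2 h at room temperature. Compound exposure lasted 16 h at 37C.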

[6] = molecular target: Peroxisome proliferator-activated receptor gamma (Homo sapiens) (UniProt P37231); test: qHTS assay to identify small molecule agonists of the peroxisome proliferator-activated receptor gamma (PPARg) signaling pathway (AID 743094; active = well fitted activation curve with a large enough effect in the signal ratio in the repeat runs, not every such curve was filed as active; inconclusive = weak or mixed curves, or effect the other way; inactive = no such curve, though single readings can be large or run the other way; the % refers to the signal ratio; as to activation: % is scaled to controls: 0 for no effect and ±100 for the full control effect); conditions: HEK293H PPARg-UAS-bla, beta-lactamase FRET ratio, 17 h; activation: at 57 µM (top of the series) unless noted
Sequence of UniProt P37231 (P37231 whole entry, looked up): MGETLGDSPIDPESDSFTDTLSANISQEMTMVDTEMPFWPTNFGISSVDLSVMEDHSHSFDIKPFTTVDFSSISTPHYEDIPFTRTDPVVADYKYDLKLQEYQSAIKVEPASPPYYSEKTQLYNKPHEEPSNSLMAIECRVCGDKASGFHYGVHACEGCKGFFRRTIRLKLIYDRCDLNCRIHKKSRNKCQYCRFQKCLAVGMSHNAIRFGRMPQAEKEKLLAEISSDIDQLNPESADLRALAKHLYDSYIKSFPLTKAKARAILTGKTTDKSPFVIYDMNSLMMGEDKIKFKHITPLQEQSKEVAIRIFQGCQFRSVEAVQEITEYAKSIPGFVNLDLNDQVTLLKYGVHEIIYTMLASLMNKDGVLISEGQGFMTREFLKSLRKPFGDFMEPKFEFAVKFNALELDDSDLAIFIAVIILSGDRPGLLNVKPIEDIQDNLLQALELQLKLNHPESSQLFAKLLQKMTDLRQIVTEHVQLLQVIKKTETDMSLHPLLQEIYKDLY
Outline: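 Stably transfected HEK293H cells (GeneBLAzer PPARg UAS-bla) were incubated with test substances for 17 h at 37C after a 5 h pre-incubation; beta-lactamase activity was then detected by FRET substrate fluorescence.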

[7] = molecular target: Peroxisome proliferator-activated receptor gamma (Homo sapiens) (UniProt P37231); test: qHTS assay to identify small molecule antagonists of the peroxisome proliferator-activated receptor gamma (PPARg) signaling pathway (AID 743191; calls by dose curve; also: nearly all actives have a fitted effect of over 30% in size); conditions: HEK293H PPARg-UAS-bla, beta-lactamase ratio, antagonist, 17 h; ratio activity, negative = inhibition: at 62.6 µM (top of the series) unless noted
Outline: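 Beta-lactamase reporter under UAS control in HEK293H PPARg-bla cells; compound treatment 17 h at 37C. Read-out: fluorescence intensity after 1 h room-temperature incubation with LiveBLAzer B/G FRET substrate.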

[8] = qHTS assay to identify small molecule antagonists of the peroxisome proliferator-activated receptor gamma (PPARg) signaling pathway - cell viability counter screen (AID 743194); conditions: PPARg-bla HEK293H viability, CellTiter-Glo luminescence, 17 h, co-treated with 50 nM rosiglitazone; activity change, negative = cytotoxicity: at 62.6 µM (top of the series); also: nearly all actives have a fitted effect of over 55% in size
Outline: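 Viability was measured as CellTiter-Glo luminescence in GeneBLAzer PPARg UAS-bla HEK293H cells. These cells had been exposed 17 h at 37 C to compounds together with rosiglitazone at 50 nM final, with the beta-lactamase readout taken in the same wells.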

[9] = qHTS assay for small molecule activators of the heat shock response signaling pathway (AID 743210; active = well fitted activation curve with a large enough effect in the signal ratio in the repeat runs, with a control signal flat, not every such curve was filed as active; inconclusive = weak or mixed curves; the % refers to the signal ratio); conditions: HeLa HSE-bla reporter, beta-lactamase ratio, 5 h; activation: at 62.6 µM (top of the series)
Outline: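 HeLa HSE-bla cells, overnight plating; cpd in DMSO 5 h, 37 C; LiveBLAzer B/G FRET substrate 2.5 h RT; fluorescence intensity read.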

[10] = qHTS assay to identify small molecule agonists of the peroxisome proliferator-activated receptor delta (PPARd) signaling pathway - cell viability counter screen (AID 743211); conditions: PPARd-bla HEK293H viability, CellTiter-Glo luminescence, 17 h; activity change, negative = cytotoxicity: at 62.6 µM (top of the series); also: nearly all actives have a fitted effect of over 55% in size
Outline: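 qHTS cell viability: PPARd-bla HEK293H; 17 h cpd, 37C; CellTiter-Glo, luminescence at 30 min RT.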

[11] = molecular target: Peroxisome proliferator-activated receptor delta (Homo sapiens) (UniProt Q03181); test: qHTS assay to identify small molecule agonists of the peroxisome proliferator-activated receptor delta (PPARd) signaling pathway (AID 743212; calls by dose curve); conditions: HEK293H PPARd-UAS-bla, beta-lactamase FRET ratio, 17 h; activation: at 62.6 µM (top of the series) unless noted
Sequence of UniProt Q03181 (Q03181 whole entry, looked up): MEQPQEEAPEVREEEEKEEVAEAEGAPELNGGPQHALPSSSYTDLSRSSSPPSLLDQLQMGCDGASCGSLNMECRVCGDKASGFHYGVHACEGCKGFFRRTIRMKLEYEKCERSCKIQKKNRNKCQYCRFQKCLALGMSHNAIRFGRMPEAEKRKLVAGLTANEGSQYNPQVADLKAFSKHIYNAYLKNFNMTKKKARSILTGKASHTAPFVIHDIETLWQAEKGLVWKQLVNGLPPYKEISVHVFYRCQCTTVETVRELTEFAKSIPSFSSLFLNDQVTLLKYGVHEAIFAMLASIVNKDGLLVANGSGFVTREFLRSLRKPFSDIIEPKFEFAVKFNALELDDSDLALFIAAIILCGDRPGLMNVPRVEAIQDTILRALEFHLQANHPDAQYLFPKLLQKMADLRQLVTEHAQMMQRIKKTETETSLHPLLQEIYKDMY
Outline: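 HEK293H PPARd-bla cells; 5 h preincubation 37 C/5% CO2; compound (DMSO) 37 C; LiveBLAzer B/G FRET substrate 2 h RT; fluorescence intensity.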

[12] = qHTS assay to identify small molecule antagonists of the peroxisome proliferator-activated receptor delta (PPARd) signaling pathway - cell viability counter screen (AID 743213); conditions: PPARd-bla HEK293H viability, CellTiter-Glo luminescence, 17 h; viability change, negative = cytotoxic: at 62 µM (top of the series) unless noted; also: nearly all actives have a fitted effect of over 50% in size
Outline: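 Cytotoxicity counter screen: CellTiter-Glo luminescence read 30 min after addition, in the same wells as the reporter assay. There, PPARd UAS-bla HEK293H cells (3000/well) were treated 17 h at 37 C with compound and 300 nM L165041.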

[13] = molecular target: Peroxisome proliferator-activated receptor delta (Homo sapiens) (UniProt Q03181); test: qHTS assay to identify small molecule antagonists of the peroxisome proliferator-activated receptor delta (PPARd) signaling pathway (AID 743215; active = well fitted inhibition curve with a large enough effect in the signal ratio in the repeat runs, not every such curve was filed as active; inconclusive = weak or mixed curves, or effect the other way; inactive = no such curve, though single readings can be large or run the other way; the % refers to the signal ratio;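 also: cells stimulated with agonist L165041 at 300 nM final during compound exposure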; as to ratio activity, negative = inhibition: % is scaled to controls: 0 for no effect and ±100 for the full control effect); conditions: HEK293H PPARd-UAS-bla, beta-lactamase FRET ratio, antagonist, 17 h; ratio activity, negative = inhibition: at 62 µM (top of the series) unless noted
Outline: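 Antagonist-mode beta-lactamase reporter screen: HEK293H cells with UAS-bla under PPARd control, stimulated by 300 nM L165041 (final) alongside test compound for 17 h at 37 C, then FRET fluorescence after 2 h substrate incubation.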

[14] = molecular target: Bile acid receptor (Homo sapiens) (UniProt Q96RI1); test: qHTS assay to identify small molecule antagonists of the farnesoid-X-receptor (FXR) signaling pathway (AID 743217; active = well fitted inhibition curve with a large enough effect in the signal ratio in the repeat runs, not every such curve was filed as active; inconclusive = weak or mixed curves, or effect the other way; inactive = no such curve, though single readings can be large or run the other way; the % refers to the signal ratio); conditions: HEK293T FXR-UAS-bla, beta-lactamase ratio, CDCA-stimulated, 16 h; activity change, negative = inhibition: at 62.6 µM (top of the series) unless noted
Outline: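 Beta-lactamase reporter under UAS control in HEK 293T cells; compound exposure 16 h at 37 °C in the presence of chenodeoxycholic acid (50 uM final); signal from B/G FRET substrate after 2 h at room temperature.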

[15] = qHTS assay to identify small molecule agonists of the farnesoid-X-receptor (FXR) signaling pathway - cell viability counter screen (AID 743218); conditions: FXR-bla HEK293T viability, CellTiter-Glo luminescence, 16 h; viability change, negative = cytotoxic: at 62.6 µM (top of the series) unless noted; also: nearly all actives have a fitted effect of over 45% in size
Outline: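 In GeneBLAzer FXR-UAS-bla HEK 293T cells, compounds act for 16 h at 37 C. Cell viability is then scored in the reporter wells by CellTiter-Glo, 30 min at RT, luminescence.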

[16] = molecular target: Vitamin D3 receptor (Homo sapiens) (UniProt P11473); test: qHTS assay to identify small molecule agonists of the vitamin D receptor (VDR) signaling pathway (AID 743222; calls by dose curve; as to activation: % is scaled to controls: 0 for no effect and ±100 for the full control effect); conditions: HEK293T VDR-UAS-bla, beta-lactamase FRET ratio, 16 h; activation: at 63.5 µM (top of the series) unless noted
Sequence of UniProt P11473 (P11473 whole entry, looked up): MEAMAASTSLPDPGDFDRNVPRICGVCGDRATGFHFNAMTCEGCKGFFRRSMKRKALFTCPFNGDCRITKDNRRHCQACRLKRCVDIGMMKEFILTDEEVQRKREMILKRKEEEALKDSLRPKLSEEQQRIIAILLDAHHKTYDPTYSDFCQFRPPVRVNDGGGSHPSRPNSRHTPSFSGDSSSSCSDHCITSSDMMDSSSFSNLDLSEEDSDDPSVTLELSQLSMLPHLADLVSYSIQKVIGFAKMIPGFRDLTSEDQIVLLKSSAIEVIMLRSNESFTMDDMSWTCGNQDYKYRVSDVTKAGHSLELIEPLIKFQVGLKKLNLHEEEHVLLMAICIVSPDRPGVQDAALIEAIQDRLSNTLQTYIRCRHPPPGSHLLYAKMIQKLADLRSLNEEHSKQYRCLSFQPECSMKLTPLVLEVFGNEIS
Outline: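 Agonist activity measured in VDR-bla reporter cells. Exposure 16 h, 37C, 5% CO2; detection by B/G FRET substrate, 2 h RT.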

[17] = molecular target: Vitamin D3 receptor (Homo sapiens) (UniProt P11473); test: qHTS assay to identify small molecule antagonists of the vitamin D receptor (VDR) signaling pathway (AID 743223; active = well fitted inhibition curve with a large enough effect in the signal ratio in the repeat runs, not every such curve was filed as active; inconclusive = weak or mixed curves, or effect the other way; inactive = no such curve, though single readings can be large or run the other way; the % refers to the signal ratio); conditions: VDR-UAS-bla HEK293T, beta-lactamase FRET ratio, 16 h; activity change, negative = inhibition: at 61 µM (top of the series) unless noted
Outline: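 Reporter line VDR-bla; stimulus 1alpha,25-(OH)2 vitamin D3, 3 nM final; compound co-addition, 16 h 37C/5% CO2; LiveBLAzer B/G substrate 2 h RT; fluorescence intensity.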

[18] = qHTS assay for small molecule activators of the heat shock response signaling pathway - cell viability counter screen (AID 743209); conditions: HSE-bla HeLa viability, CellTiter-Glo luminescence, 5 h; activity change, negative = cytotoxicity: at 62.6 µM (top of the series); also: nearly all actives have a fitted effect of over 50% in size
Outline: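 Quantitative HTS format, Tox21 10K library. HeLa cells carrying an HSE-driven beta-lactamase reporter were treated 5 h at 37 C, then assessed for viability by CellTiter-Glo luminescence.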

[19] = qHTS assay for small molecule agonists of the antioxidant response element (ARE) signaling pathway - cell viability counter screen (AID 743203; calls by dose curve; also: nearly all actives have a fitted effect of over 55% in size); conditions: ARE-bla HepG2 viability, CellTiter-Glo luminescence, 16 h; viability change, negative = cytotoxic: at 73.3 µM (top of the series)
Outline: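 Cells (ARE-bla HepG2, 2,000/well) receive DMSO-dissolved compounds after a 5 hrs rest. Plates incubate 16 hrs at 37C/5% CO2. CellTiter-Glo luminescence is then recorded after 30 min at room temperature.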
Potency is read from the fitted curve at half-maximal effect; tags tell the direction and shape of the fitted curve or compound fluorescence and quenching.

COc1cc2nc(N3CCN(C(=O)c4ccco4)CC3)nc(N)c2cc1OC
Potency [1]: inconclusive: 26.6 µM [cytotoxic]
Potency [2]: inconclusive: 11.9 µM [activator, partial curve]
Potency [3]: inconclusive: 33.5 µM [falling, single point]
activation [4]: inconclusive: -31.1% [at 34.3 µM]
Potency [5]: inconclusive: 13 µM [activator, single point]

CCCCCCCC/C=C\CCCCCCCC(=O)N(C)CC(=O)O
Potency [1]: inconclusive: 68.6 µM [cytotoxic, single point]
Potency [3]: inconclusive: 68.6 µM [falling, single point]
Potency [6]: active: 6.92 µM
Potency [7]: inconclusive: 61.6 µM [inhibitor]
Potency [8]: inconclusive: 61.6 µM [cytotoxic, single point]
Potency [4]: inconclusive: 61.1 µM [falling, partial curve]
Potency [9]: inconclusive: 30.9 µM [falling, partial curve]
Potency [10]: active: 38.9 µM
Potency [11]: inconclusive: 61.6 µM [falling, single point]
Potency [12]: active: 12.3 µM
ratio activity, negative = inhibition [13]: inconclusive: 21.4%
Potency [14]: inconclusive: 54.9 µM [cytotoxic]
Potency [15]: active: 38.9 µM
Potency [5]: inconclusive: 61.6 µM [falling, single point]
Potency [16]: inconclusive: 21.9 µM [fluorescent]
Potency [17]: inconclusive: 21.9 µM [single point]

CCCCCCCCCCCC[N+](C)(C)C
Potency [1]: inconclusive: 68.4 µM [cytotoxic, partial curve, poor fit]
Potency [3]: inconclusive: 21.7 µM [falling, full curve, poor fit]
Potency [6]: inconclusive: 54.9 µM
activation [6]: inconclusive: -19.5%
Potency [7]: inconclusive: 54.9 µM [fluorescent, partial curve]
Potency [8]: inconclusive: 27.5 µM [cytotoxic, partial curve, poor fit]
Potency [18]: inconclusive: 10.9 µM [cytotoxic, full curve, poor fit] and inconclusive: 19.5 µM [cytotoxic, partial curve, poor fit] and inconclusive: 15.5 µM [cytotoxic, full curve]
Potency [9]: inconclusive: 36.7 µM
Potency [10]: inconclusive: 21.8 µM [cytotoxic, partial curve, poor fit] and active: 54.9 µM and active: 49 µM
Potency [14]: inconclusive: 54.9 µM and inconclusive: 49 µM
Potency [15]: inconclusive: 61.6 µM [cytotoxic, single point]
Potency [5]: inconclusive: 54.9 µM and inconclusive: 30.9 µM [inhibitor, partial curve, poor fit]
activation [16]: inconclusive: 3.04%
Potency [17]: inconclusive: 21.8 µM [fluorescent] and inconclusive: 54.9 µM and inconclusive: 54.9 µM [single point]

COc1cc2c(c(OC)c1OC)-c1ccc(OC)c(=O)cc1[C@@H](NC(C)=O)CC2
Potency [1]: inconclusive: 0.376 µM [cytotoxic, partial curve, poor fit]
Potency [3]: inconclusive: 60.4 nM [falling, full curve, poor fit] and inconclusive: 137 nM [falling, full curve, poor fit]
activation [6]: inconclusive: -8.64% and inconclusive: -14%
ratio activity, negative = inhibition [7]: inconclusive: -6.27%
Potency [4]: inconclusive: 42.7 nM [rising, full curve] and inconclusive: 19.3 nM [rising, full curve] and inconclusive: 23.7 nM [rising, full curve]
Potency [19]: inconclusive: 0.237 µM [rising, full curve, poor fit]
Potency [18]: inconclusive: 119 nM [cytotoxic, full curve, poor fit]
Potency [10]: inconclusive: 0.0275 µM [cytotoxic, partial curve, poor fit]
activity change, negative = inhibition [17]: inconclusive: -24.1% and inconclusive: -34.9% and inconclusive: -23%

Cc1cc(=O)oc2cc(N(C)C)ccc12
Potency [1]: inconclusive: 30.6 µM [rising, partial curve]
Potency [2]: inconclusive: 24.3 µM [activator, partial curve, poor fit]
Potency [3]: inconclusive: 54.5 µM [rising, partial curve]
Potency [6]: inconclusive: 38.9 µM [fluorescent, partial curve, poor fit]
Potency [7]: inconclusive: 38.9 µM [fluorescent, partial curve]
Potency [4]: inconclusive: 48.6 µM [rising, partial curve]
Potency [9]: active: 34.7 µM
Potency [11]: inconclusive: 30.9 µM [rising, partial curve]
Potency [12]: inactive
Potency [13]: inconclusive: 43.6 µM [fluorescent, partial curve]
Potency [14]: inconclusive: 43.6 µM [fluorescent, partial curve]
Potency [5]: inconclusive: 43.6 µM [fluorescent, partial curve]
Potency [16]: inconclusive: 43.6 µM [fluorescent, partial curve]
Potency [17]: inconclusive: 43.6 µM [fluorescent, partial curve]
